In PubChem BioAssay (NCI):
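Dose response: 5 concentrations. Exposure: 48 h. Format: 96-well plates. Endpoint: linear interpolation; highest concentration if not reached. At the GI50, growth is halved. TGI: total growth inhibition.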

What follows are compounds tested on NCI-H322M lung (assay: growth of human tumour cells (NCI), 48 h).
With `O/N=C(\CSc1nnc(-c2c[nH]c3ccccc23)n1-c1ccccc1)c1ccc(Br)cc1` the GI50 was 4.8 µM and the TGI was 24.2 µM.
In the case of `CC(=O)c1ccc(Nc2nc(SC(C)C)nc(-c3ccccc3)c2C#N)cc1`, the GI50 is reported as 11.7 µM and the TGI is reported as greater than 100 µM.
Work on `COC[C@@H](CC(C)C)N=C1N/C(=C\c2ccc3ncsc3c2)C(=O)N1C` yielded a GI50 of 2.32 µM and a TGI greater than 100 µM.
